From PubChem BioAssay AID662 (National Center for Advancing Translational Sciences (NCATS), 2007)
In all, about 71,000 compounds went through this assay and about 1,800 (2.5%) were called active. Inconclusive means that the source gave no clear call. Such entries were picked first, then a sample of the others. Calls come from the whole dose curve; as a rule, active = well fitted activation curve with a large enough effect in the signal ratio, with a control signal flat (not every such curve was filed as active); inconclusive = small, poorly fitted or top-dose-only effect, or effect the other way, or a change in a side signal; inactive = flat fitted curve, though single readings scatter; the % refers to the signal ratio. Potencies beside an inconclusive call are fits to weak or partial responses and may not hold up.

Test: Cell signaling CRE-BLA (Fsk stim); for activity change, negative = inhibition: % of control where 0% means no effect
Details: CHO CRE-bla reporter (cAMP response element driving beta-lactamase), forskolin EC10, beta-lactamase ratio; activity change, negative = inhibition: at 38.2 µM (top of the series) unless noted
Method in brief: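 Titrated compounds plus EC10 NKH 477 on CHO CRE-bla cells, 3 h, 37 °C. CCF4, 2 h RT. Ratio 460/530 nm → AC50.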
Potency is the fitted concentration of half-maximal effect; tags give direction and shape of the fitted curve.

| SMILES | Potency | activity change, negative = inhibition |
| --- | --- | --- |
| COc1ccc(C2=NOC(C(=O)NCc3ccc(F)cc3)C2)cc1OC (configuration not stated) | active: 12.6 µM |  |
| Cc1ccccc1OCC1Cn2c(nc3c2c(=O)[nH]c(=O)n3C)O1 (configuration not stated) |  | inconclusive: 28.4% |
| COc1ccccc1CNc1ncncc1-c1cccc(NS(C)(=O)=O)c1 |  | inactive: 8.29% |
| COCC(=O)N1CCC2(CC1)CCN(C(c1ccccc1)c1ccccc1)CC2 |  | inactive: -5.13% |
| Clc1nc(NCCc2ccccc2)c2ncn(-c3ccccc3)c2n1 |  | inactive: 16.1% [at 7.6 µM] |
| Cc1ccc(-c2nnn(CC(=O)N(Cc3ccco3)C(C(=O)NC(C)(C)C)c3cccs3)n2)o1 (configuration not stated) |  | inactive: -0.53% |
| COc1ccccc1Nc1nnc(SCC(=O)N2CCCC2=O)s1 |  | inconclusive: -5.35% |
| CCOC(=O)c1cnc(-n2nc(C)cc2C)nc1NCc1ccccc1 |  | inactive: -5.56% |
| Cc1cc(=O)n2nc(N3CCCC(C(=O)N4CCN(C)CC4)C3)sc2n1 (configuration not stated) |  | inconclusive: 23.1% |
| COc1ccc(OC)c(NC(=O)c2ccc(S(=O)(=O)N3CCN(C)CC3)cc2)c1 |  | inconclusive: -4.47% |
| CN1C(=O)NC(NC(=O)c2cccs2)(C(F)(F)F)C1=O (configuration not stated) |  | inconclusive: 16.8% |
| CCn1c(SCC(=O)NC(C)(C)C)nc(O)cc1=O |  | inactive: -1.91% |
| COc1cccc(Cn2c(=O)c(-c3cccc(C#N)c3)nc3cnc(OC)nc32)c1 |  | inconclusive: -3.73% |
| O=C(Nc1ccccc1)c1ccc2nc(-c3ccco3)c(-c3ccco3)nc2c1 | inconclusive: 10 µM [rising, single point] |  |
| COCCCNC(=O)C1CCN(S(=O)(=O)N(CC(C)C)CC(C)C)CC1 |  | inconclusive: -13% |
| CCOCCCN(C(=O)Nc1ccc(CC)cc1)C1CCN(C(C)=O)CC1 |  | inconclusive: 10.4% |
| CCc1ccc2oc(=O)cc(CN3CCOCC3)c2c1 |  | inactive: -0.282% |
| COC(=O)c1ccccc1NC(=O)CN1CCC(n2nnc3cc(F)ccc32)CC1 |  | inactive: 16% |
| CCCCCn1c(SCCC(C)C)nc2c1c(=O)[nH]c(=O)n2C | inconclusive: 12.6 µM [rising, partial curve] |  |
| CC(C)[C@@H]1O[C@H](/C=C\c2ccccc2)OCC1(C)C |  | inactive: -5.13% [at 7.6 µM] |
| O=C(CSc1nc2ccccc2[nH]1)NCCN1CCCCC1 |  | inconclusive: -4.34% |

| SMILES | Potency | activity change, negative = inhibition |
| --- | --- | --- |
| CCN(CCCNc1ncnc2nc[nH]c12)c1cccc(C)c1 | inconclusive: 5.01 µM [rising, partial curve] |  |
| [O-]/[N+](=C\c1ccncc1)c1ccccc1 | inconclusive: 5.01 µM [falling, single point] |  |
| Cc1ccccc1S(=O)(=O)Cc1ccc(C(=O)NCCN2CCN(Cc3ccccc3)CC2)o1 | inconclusive: 12.6 µM [falling, partial curve] |  |
| CCOC(=O)c1cn2c3c(c(F)c(F)c(F)c3c1=O)SC(N1CCCC1)=N2 | inconclusive: 0.00316 µM [falling, full curve, poor fit] |  |
| CCCCOC(=O)C1=C(C)Nc2ncnn2C1c1cc(OC)ccc1OC (configuration not stated) |  | inconclusive: 21.6% |
| O=C(Nc1ccn(-c2ccccc2)n1)c1ccc(S(=O)(=O)N2CCCCCC2)cc1 | inconclusive: 2 µM [rising, partial curve, poor fit] |  |
| Cc1nn2c(C(F)(F)F)cc(-c3ccc(Cl)cc3)nc2c1C(=O)N1CCOCC1 | inconclusive: 1.26 µM [rising, partial curve] |  |
| Cc1ccc(S(=O)(=O)Nc2cc(C(=O)N3CCOCC3)ccc2N2CCCCC2)cc1 |  | inconclusive: 3.66% |
| CCOCCCNC(=O)c1c[nH]c2cc(C)ccc2c1=O |  | inconclusive: 18.7% |
| c1ccc(CN2CCC3(CCc4ccccc43)CC2)cc1 | inconclusive: 12.6 µM [falling, partial curve, poor fit] |  |
| COc1cc2c(cc1OC)C(/C(C#N)=N\O)=NC(C)(C)C2 | inconclusive: 2 µM [rising, full curve] |  |
| CC(C)CCN1CC(C(=O)NCc2ccc(F)cc2)CC1=O (configuration not stated) |  | inconclusive: 23.1% |
| CCOc1ccccc1NC(=O)c1ccc(F)c(S(=O)(=O)N2CCC3(CC2)OCCO3)c1 | inconclusive: 20 µM [rising, single point] |  |
| CCc1ccc(-c2nc(CSCC(=O)NCCCN3CCCC3=O)c(C)o2)cc1 | inconclusive: 1 µM [rising, full curve] |  |
| CCN(CC)S(=O)(=O)c1ccc2nc(CSc3nnnn3-c3ccc(O)cc3)[nH]c2c1 |  | inconclusive: -11.5% |
| CCOc1ccc(NC(=O)c2cccc3c2C(=O)N(Cc2cccnc2)C3)cc1 |  | inconclusive: 32% |
| Clc1ccc(CSCc2ccc(Cl)cc2Cl)c(Cl)c1 |  | inactive: 10.5% [at 7.6 µM] |
| Cc1c(-n2cc(C(=O)O)c(=O)c3cc(F)c(N4CCCC4)c(F)c32)c(=O)n(-c2ccccc2)n1C | inconclusive: 25.1 µM [rising, single point] |  |
| Cn1cnc2c(N3CCCCC3)nccc21 |  | inactive: -10.4% |
| O=C(OCCN1C(=O)CCC1=O)c1ccc(S(=O)(=O)N2CCCCC2)cc1 |  | inactive: -0.576% |
| CC12CCC(C(=O)N3CCN(Cc4ccccc4)CC3)(OC1=O)C2(C)C (configuration not stated) | inconclusive: 25.1 µM [rising, single point] |  |

| SMILES | Potency | activity change, negative = inhibition |
| --- | --- | --- |
| Cc1ccccc1NC(=O)c1ccccc1O |  | inactive: 0.96% |
| CC(C(=O)OCn1nnc2ccccc2c1=O)N1C(=O)c2ccccc2C1=O (configuration not stated) |  | inconclusive: 4.54% |
| CCOC(=O)c1[nH]c2c(c1C)C(=O)CC(c1ccc(OC)c(OC)c1)C2 (configuration not stated) |  | inactive: 9.87% |
| CCN(CC)c1nc(Nc2ccccc2)nc(Oc2ccc(=O)n(C)n2)n1 | inconclusive: 3.16 µM [rising, single point] |  |
| COc1ccc(Cl)cc1NC(=O)c1c(-c2ccccc2)noc1C | inconclusive: 3.98 µM [rising, full curve] |  |
| COc1ccc(-c2nnc3ccc(SCC(=O)NCc4ccco4)nn23)cc1OC |  | inconclusive: 19.7% |
| COC(=O)c1cc(NC2c3ncccc3C(=O)N2Cc2ccccc2)cc(C(=O)OC)c1 (configuration not stated) |  | inconclusive: 12.9% |
| Cc1nn(CC(=O)Nc2ccc(C(=O)N3CCCC3)cc2)c(=O)c2ccccc12 |  | inactive: -5.31% |
| O=C(NC(NC1CCS(=O)(=O)C1)C(=O)c1ccccc1)c1ccc(Cl)cc1 (configuration not stated) |  | inconclusive: -12.7% |
| CC(=O)c1cc(C)ccc1OC(=O)c1cccc2nc(C)oc12 |  | inconclusive: -4.18% |
| Cc1ccc(-c2nc(-c3nccc4ccccc34)oc2-c2ccccc2)cc1 |  | inconclusive: 8.8% [at 7.6 µM] |
| CCOc1ccc(Nc2nc(C)cc(C)c2C#N)cc1 | inconclusive: 25.1 µM [rising, single point] |  |
| O=C(CCN1C(=O)CSC1=O)Nc1ccccc1 |  | inactive: -4.63% |
| CCc1ccc(NC(=O)CNS(=O)(=O)c2c(C)noc2C)cc1 |  | inactive: -24.5% |
| Cc1cc2nn(-c3cccc4ccccc34)nc2cc1N |  | inactive: 21.4% |
| COc1ccc(CNc2cc(-c3cccc(C#N)c3)ncn2)c(OC)c1 | inconclusive: 6.31 µM [rising, partial curve] |  |
| CCc1cc(C=NC2CCCCC2)c(O)s1 |  | inconclusive: 9.46% |
| COC(=O)c1nc(-c2ccccc2)oc1N(C)C | inconclusive: 10 µM [rising, single point] |  |
| CN1CCN(c2ncc3ncc(=O)n(-c4ccccc4)c3n2)CC1 |  | inconclusive: 8.84% |
| N[C@@H](Cc1ccccc1)c1nnc(SCc2ccccc2F)o1 |  | inconclusive: -3.18% |
| CN(C)S(=O)(=O)c1ccc2c(c1)c(=O)c(C(=O)NCCCN1CCCCCC1)cn2C |  | inactive: -8.31% |

| SMILES | Potency | activity change, negative = inhibition |
| --- | --- | --- |
| CCOC(=O)c1sc(=S)n2c1[nH]c(=O)c1ccc(C(=O)OC)cc12 |  | inconclusive: -6.72% |
| Cc1ccc(C)c(N2CCN(C(=O)CCS(=O)(=O)c3cccc4nonc34)CC2)c1 |  | inconclusive: -2.22% |
| O=C(O)COC(=O)Cc1ccccc1Nc1c(Cl)cccc1Cl |  | inactive: -7.92% [at 17.1 µM] |
| CN(C)c1ncnc2ccc(-c3ccccc3C#N)cc12 | active: 2 µM |  |
| Cc1sc2nc(SCC(=O)NCCO)n(C)c(=O)c2c1C | inconclusive: 12.6 µM [rising, single point] |  |
| O=C(Nn1cnnc1)c1ccccc1-c1ccccc1 |  | inconclusive: -10.4% |
| Cc1cc(C)c(C(=O)COC(=O)Cn2cnnn2)cc1C | inconclusive: 0.1 µM [falling, single point] |  |
| CCNc1ccc(S(=O)(=O)C(F)(F)F)cc1NC(=O)C12CCC(CC1)C2 |  | inactive: 4.63% |
| O=S(=O)(Nc1cccc2ncccc12)c1cccs1 |  | inconclusive: 10.1% |
| COc1nc(N)nc(N2CCOCC2)n1 | inconclusive: 12.6 µM [rising, partial curve, poor fit] |  |
| COc1ccc(OC)c(C(C)NC(=O)c2ccco2)c1 (configuration not stated) |  | inconclusive: 5.03% [at 7.6 µM] |
| CN1CCC[C@@H]1c1cccnc1.O=C(O)c1ccccc1O.O=C([OH2+])c1ccccc1O.O=C([OH2+])c1ccccc1O.[Mn] |  | inactive: 5.08% [at 7.6 µM] |
| O=C(Nc1cnccn1)c1ccncc1 | inconclusive: 25.1 µM [rising, single point] |  |
| Cc1ccc(-c2[nH]nc3c2C(c2cccnc2)C(C#N)=C(N)O3)cc1 (configuration not stated) | inconclusive: 15.8 µM [rising, partial curve] |  |
| CN(C)CCO[C@](C)(c1ccccc1)c1ccccn1 | inactive |  |
| CS(=O)(=O)c1ccc(Cn2c3c(c4cc(F)cc(F)c42)CCC[C@H]3CC(=O)O)cc1 |  | inactive: -3.51% |
| COCCN(CCOC)S(=O)(=O)c1ccc(C(=O)Nc2nnc(C)o2)cc1 |  | inactive: -1.06% |
| Cc1nc2c(c(=O)n1CCC(C)C)c1nc3ccccc3nc1n2Cc1ccc2c(c1)OCO2 |  | inactive: 14.4% |
| CCOC(=O)C(C)Sc1nc(-c2ccc(OC)cc2)nc2c1c(=O)n(C)c(=O)n2C (configuration not stated) |  | inactive: 3.69% |
